Laboratory results as given in the antibiotic and cytotoxicity screens of Wong et al. (2023).
Some of the results follow.

The molecules below were run on HSkMC (human skeletal muscle cells) (assay: cytotoxicity call (relative viability < 0.9)). Settings: 10 µM.
In the case of `C[C@@H]1CN([C@@H](C)CO)C(=O)c2cccc(NC(=O)Nc3cccc4ccccc34)c2O[C@H]1CN(C)CC1CC1`, the cytotoxicity call is reported as “inactive”.
`Cc1noc(C)c1S(=O)(=O)Nc1ccc2c(c1)C(=O)N([C@H](C)CO)C[C@H](C)[C@H](CN(C)C(=O)Nc1ccccc1)OCCCC[C@H](C)O2` was tested, and the cytotoxicity call was “inactive”.
For `O=C(C[C@@H]1C=C[C@@H](NC(=O)C2CCC2)[C@@H](CO)O1)NCCCN1CCOCC1`, the cytotoxicity call was “inactive”.
In the case of `Cc1noc(C)c1NC(=O)N(C)C[C@@H]1OCCCC[C@H](C)Oc2ccc(NC(=O)C3CCCCC3)cc2C(=O)N([C@H](C)CO)C[C@H]1C`, the cytotoxicity call is reported as “inactive”.
With `CC(C)CC#Cc1ccc2c(c1)O[C@@H](CN(C)C(=O)c1cnccn1)[C@@H](C)CN([C@H](C)CO)S2(=O)=O` the cytotoxicity call was “inactive”.
With `COc1ccc(S(=O)(=O)N(C)C[C@@H]2Oc3c(NC(=O)Nc4cccc5ccccc45)cccc3C(=O)N([C@H](C)CO)C[C@@H]2C)cc1` the cytotoxicity call was “inactive”.
In the case of `C[C@@H]1CN([C@@H](C)CO)C(=O)c2cc(NC(=O)Nc3ccc(F)cc3)ccc2O[C@H]1CN(C)Cc1ccc(C(F)(F)F)cc1`, the cytotoxicity call is reported as “active”.
`NCCNC(=O)c1nc(-c2ccc(Br)o2)no1` was tested, and the cytotoxicity call was “inactive”.
With `COc1ccc(NC(=O)N(C)C[C@H]2OCCCC[C@H](C)Oc3ccc(NS(=O)(=O)c4c(C)noc4C)cc3C(=O)N([C@@H](C)CO)C[C@H]2C)cc1` the cytotoxicity call was “inactive”.
With `COc1ccc(CN(C)C[C@H]2Oc3ccc(NC(=O)Nc4cccc5ccccc45)cc3CC(=O)N([C@H](C)CO)C[C@H]2C)cc1` the cytotoxicity call was “active”.
`COc1ccc([C@H]2CC=CC[C@H](C)Oc3ccccc3C(=O)N(C)[C@@H](Cc3ccccc3)C(=O)N2)c(OC)c1` was tested, and the cytotoxicity call was “inactive”.
For `C[C@H]1CCCCO[C@H](CN(C)C(=O)Cc2ccccc2)[C@@H](C)CN([C@@H](C)CO)C(=O)c2cc(NC(=O)c3ccccc3)ccc2O1`, the cytotoxicity call was “inactive”.
`C[C@@H]1CN([C@H](C)CO)C(=O)c2cc(NC(=O)Nc3ccc(C(F)(F)F)cc3)ccc2O[C@@H](C)CCCCO[C@H]1CN(C)Cc1ccc(Cl)c(Cl)c1` was tested, and the cytotoxicity call was “inactive”.
For `Cn1cnc(=N)c2[nH]cnc21`, the cytotoxicity call was “inactive”.
With `CO[C@@H](CN(C)C(=O)Nc1ccc(C(F)(F)F)cc1)[C@H](C)CN(Cc1ccccc1Cl)[C@@H](C)CO` the cytotoxicity call was “inactive”.
In the case of `C[C@@H]1CCCCO[C@@H](CN(C)CC2CCCCC2)[C@H](C)CN([C@@H](C)CO)C(=O)c2cc(N(C)C)ccc2O1`, the cytotoxicity call is reported as “inactive”.
`CN(C)CCCNC(=O)C[C@@H]1CC[C@@H](NS(=O)(=O)c2ccccc2)[C@H](CO)O1` was tested, and the cytotoxicity call was “inactive”.
In the case of `C[C@@H]1CN([C@H](C)CO)C(=O)c2cc(NC(=O)CCC(F)(F)F)ccc2O[C@@H](C)CCCCO[C@@H]1CN(C)S(=O)(=O)c1cccs1`, the cytotoxicity call is reported as “inactive”.
For `C[C@H](CO)N1C[C@H](C)[C@H](CN(C)C(=O)Nc2ccc(F)cc2)OCCCC[C@H](C)Oc2ccc(NS(=O)(=O)c3ccc(Cl)cc3)cc2C1=O`, the cytotoxicity call was “inactive”.
In the case of `C[C@H](CO)N1C[C@H](C)[C@@H](CN(C)C(=O)Nc2ccccc2)OCCCC[C@H](C)Oc2ccc(NC(=O)Nc3cccc4ccccc34)cc2C1=O`, the cytotoxicity call is reported as “inactive”.
With `NCC1OC(OC2C(N)CC(N)C(O)C2OC2OC(CO)C(O)C2O)C(N)C(O)C1O.O=S(=O)(O)O` (centres undefined) the cytotoxicity call was “inactive”.
`Cn1cnc(CCNC(=O)C[C@@H]2CC[C@H]3[C@@H](COC[C@H](O)CN3C(=O)Nc3ccc(Cl)cc3)O2)c1` was tested, and the cytotoxicity call was “inactive”.
`CCC(=O)OC(OP(=O)(CCCCc1ccccc1)CC(=O)N1CC(C2CCCCC2)CC1C(=O)[O-])C(C)C.[Na+]` (centres undefined) was tested, and the cytotoxicity call was “inactive”.
With `CCOc1cc(OCC)cc(C(=O)N[C@@H](Cc2ccc(-n3cc(-c4ccc(C(=O)NO)s4)nn3)cc2)C(=O)OC)c1` the cytotoxicity call was “inactive”.
With `CC(C)NC(=O)Nc1ccc2c(c1)C(=O)N(C)[C@H]1CC[C@H](CC(=O)NCc3ccc(F)cc3)O[C@H]1CO2` the cytotoxicity call was “inactive”.
With `C[C@@H]1CN([C@H](C)CO)C(=O)CCCn2cc(nn2)CO[C@@H]1CN(C)C(=O)c1ccc(N2CCN(C)CC2)cc1` the cytotoxicity call was “inactive”.
For `C[C@@H]1CN([C@@H](C)CO)C(=O)c2cc(NC(=O)Cn3cnnn3)ccc2O[C@H]1CN(C)C(=O)Nc1ccc(C(F)(F)F)cc1`, the cytotoxicity call was “inactive”.
With `CC(C)NC(=O)Nc1ccc2c(c1)C(=O)N([C@H](C)CO)C[C@H](C)[C@H](CN(C)Cc1ccc3c(c1)OCO3)O2` the cytotoxicity call was “inactive”.
In the case of `CCCCOc1ccc(C(=O)C2=C(O)C(=O)N(Cc3cccnc3)[C@H]2c2ccc(O)c(OCC)c2)c(C)c1`, the cytotoxicity call is reported as “inactive”.
